Experimental data as given in PubChem BioAssay AID1508624 (National Center for Advancing Translational Sciences (NCATS), 2021).
Hit rate of the full screen: of about 48,000 compounds, about 120 (0.25%) were called active. Inconclusive results (about 4%) are left out. The call rests on the fitted dose curve; in most records, active means well fitted activation curve with a large enough effect; inconclusive means small, poorly fitted or top-dose-only effect, or another doubt; inactive means no such curve, though single readings can be large or run the other way. The list shows a part of the results.

Experiment: Primary qHTS for Identification of Small Molecule Activators of Huntingtin-Antisense Promoter Activity; further: nearly all actives have a fitted effect of over 55% in size
Settings: HEK293 HTT-AS promoter firefly luciferase reporter (activity 0% = vehicle and -100% = no light), 24 h; series mostly up to 57.5 µM; activity change, positive = activation: at the top concentration
Method in brief: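 HEK293 luciferase promoter-reporter cells (2,500/well) plated 24 h, then compounds added at up to 57.5 uM final for 24 h at 37 °C. Firefly luminescence by Dual-Glo, normalized to vehicle (0%) and zero RLU (-100%).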

Activity change, positive = activation, inactive:
COc1cccc(CNC(=O)CSc2cc(C)[nH]c(=O)n2)c1 -8.88%
Cc1ccc(C(=O)COC(=O)CCCC(=O)Nc2cc(C(F)(F)F)ccc2Cl)cc1C -4.95%
Cc1c(Cl)cccc1NC(=O)CSc1nc(=O)n(Cc2ccncc2)c2c1CCC2 -7.39%
CCc1nn(CCCN2CCN(c3cccc(Cl)c3)CC2)c(=O)n1CCOc1ccccc1 -35.8%
COc1ccc(C(=O)NCc2ccc3c(c2)CCN3C(C)=O)cc1OC -15%
Cc1oc(-c2ccc(C(=O)NCCCOC(C)C)cc2)nc1CS(=O)(=O)c1ccccc1 -27.5%
CCn1ccc2cc(S(=O)(=O)N3CCCN(C(=O)Nc4ccc(C)cc4Cl)CC3)ccc21 -16%
Cc1cc(Nc2ccccc2F)n2nc(Cc3ccc(Cl)cc3)nc2n1 -18.2%
COc1cc2c(cc1OC)n(CC(=O)Nc1ccc(C)cc1C)c(=O)n1nc(-c3ccccc3)nc21 -10.5%
Cc1ccc(C)c(N(C)C(=O)CCNC(=O)Cn2cnc3ccccc3c2=O)c1 -31.9%
CC(C)CC(=O)Nc1nnc(S(=O)(=O)N(C)c2ccc(Cl)cc2)s1 -25%
Cc1c(-c2ccc(Cl)cc2)c(=O)oc2c(CN3CCN(C)CC3)c(O)ccc12 -19.2%
O=C(CNC(=O)c1ccccc1Cl)OCc1cc(=O)n2nc(C3CC3)sc2n1 -3.45%
CC1CCc2c(sc3nc(-c4cc5ccccc5oc4=O)nc(Cl)c23)C1 (configuration not stated) 0.64%
CCOC(=O)C1CCCN(C(=O)c2cc3c(Cl)nc4ccccc4c3s2)C1 (configuration not stated) -84%
COc1cccc2sc(N(Cc3cccnc3)C(=O)C3CCCCC3)nc12 -27.7%
CCOc1ccc(C2c3c(-c4ccccc4O)n[nH]c3C(=O)N2Cc2cccnc2)cc1OC (configuration not stated) 9.79%
O=S(=O)(c1cccc2cnccc12)N1CCCNCC1
CC(C)c1nn2c(=O)cc(COC(=O)c3cccc(NC(=O)c4ccccc4F)c3)nc2s1 6.05%
CCC1Oc2ccc(C)cc2N(CC(=O)NCc2ccc(F)cc2)C1=O (configuration not stated) -1.99%
O=C(Nc1cccc(Cl)c1)C(Cc1ccccc1)n1cccc1 (configuration not stated) -26.4%
O=C1CC(c2ccccc2)Cc2[nH]c(=O)c(C(=O)Nc3ccc(F)cc3)cc21 (configuration not stated) -6.57%
CCOc1ccc(CCNC(=O)CCCc2nnc3n(CCCOC)c(=O)c4sccc4n23)cc1 -1.54%
Cc1c(C(=O)N2CCCCCC2)c(S(=O)(=O)Nc2ccc(OC(F)(F)F)cc2)c(C)n1C -17.6%
CCOC(=O)c1ccc(NC(=O)CSc2cc(-c3ccccc3)nc(C)n2)cc1 -27.5%
COc1ccc(N2C(=O)C(CC(=O)Nc3ccc(Cl)cc3)N(Cc3ccc4c(c3)OCO4)C2=O)cc1 (configuration not stated) 0%
COc1ccc(NC(=O)CCc2nc3cccnc3n2-c2ccccc2)c(OC)c1 -15.1%
